Assay results from article PMC10726135.
Some of the results follow. At the low end of the ranking the order means little. Measured with an extract: partners may take part in the binding.

The sequences below were run against T1, HNF4alpha2 (COS-7 nuclear extract) (UniProt P41235) (assay: protein-binding microarray). Details: COS-7 nuclear extract on double-stranded Agilent 4x180k PBM; binding buffer, salt, pH and temperature not given; high values mean tight binding; double strand, one strand shown; sequences stand for … in …GCCTAGGGAGATTAGAGTATCGGTCGA.
T1 sequence: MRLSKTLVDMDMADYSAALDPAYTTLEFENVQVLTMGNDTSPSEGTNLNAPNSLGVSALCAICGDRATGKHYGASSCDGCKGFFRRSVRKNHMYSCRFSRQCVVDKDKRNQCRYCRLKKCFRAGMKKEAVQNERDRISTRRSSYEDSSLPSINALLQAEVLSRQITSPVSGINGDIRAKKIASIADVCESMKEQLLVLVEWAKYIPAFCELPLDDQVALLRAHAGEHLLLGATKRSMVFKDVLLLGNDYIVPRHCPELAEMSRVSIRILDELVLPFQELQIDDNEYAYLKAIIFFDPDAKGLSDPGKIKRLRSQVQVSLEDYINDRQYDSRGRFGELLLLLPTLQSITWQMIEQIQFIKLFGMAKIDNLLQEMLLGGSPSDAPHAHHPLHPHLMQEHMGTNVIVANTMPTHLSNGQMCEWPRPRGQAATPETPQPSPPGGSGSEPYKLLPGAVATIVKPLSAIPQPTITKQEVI

| Sequence | binding signal (log2 normalized intensity) |
| --- | --- |
| CCGGTTTGTTCCATGCCACAGAATCGCCCC | 2.6 |
| GGAACCAAGAGCAGATTTGTTTGCTCTTTA | 0.323 |
| GGTTCTCTCTTCTTCCCCTCCTTCAGGTCA | 2.72 |
| AATGACCCTTGCTTGACCCATTATGGCCAC | 1.15 |
| TCCGGGTATGTTCTTAAGATAAGGACTGTT | 1.44 |
| CAAGGTCCCATGCACTGGCCTGGATTTAAA | -1.01 |
| TCCCAGGATAATGGAGAAGATAAGCAGATC | -1.21 |
| GACCAGCTTTTGGAAGGACTTCGAATGGTA | 1.06 |
| AGCTGACCCCAAAACCCCCAAAGGTGAGTA | 3.97 |
| AATGGTGTAGAGGCCAGAGGTCGTGTCTCC | 1.6 |
| TTATCCTTGGGACATTCTCACATTAAAAGA | 1.6 |
| GGAACATCAGACACAGAGATAAGGAGGTAA | -0.87 |
| GCAGAGATTCCTGCTGAGTTATCTCTTGAC | -0.763 |
| CGTTCCTGACAGACTGCCATTCCAGAAGTA | -1.18 |
| GCCATCTGCTGCCTCAGTTTCCCCGTCTCT | 1.65 |
| TTCCCACCCCATTTCACAGCAACCTCAGAC | 2.21 |
| TGGCCTCTGCAGACATGGACTCTGGGATCT | 3.06 |
| GGAAGGGAGGTGAGTGCTAGCATTGCTCAG | -1.06 |
| TGCATTCCCCCACCTACTGTCTCCTAATCA | 2.17 |
| AAACAAGTAGCAGTTCAAAAGTTCAAAGAT | 1.73 |
| CCAGAAAAGGCCTAAAAGGTTATCTTCCAG | -1.13 |
| GATGGGCCAGGCAGGACAGTTTTGTGTGTT | 1.11 |
| ATTATTAACTGTAGGCGTATGCTGTACAGA | 1.29 |
| ATAGGGAAAGATAAAAAAGTTCCAGAGACC | -1.16 |
| AGGGCATGGGCAGCTTTGAAGACTCTCTTT | -1.08 |

| Sequence | binding signal (log2 normalized intensity) |
| --- | --- |
| GAAGATGCCAGCCCCGAGATAACCCCTCTC | 4.64 |
| CAGGAGGATTCCTGATGCGTTCAAGGAACA | -0.786 |
| GATAGGCACAATCAGCAAACACAGATAGCA | -1.23 |
| GAGGGGGACACAGTTCAGGCCATCACACTC | -1.09 |
| ATCTTCCTGAGGAGAGCAAAGATCACCTGG | 1.13 |
| CACACACACACAGCATTCCATTCATTTTAG | -0.727 |
| TTCCCTCATGATTTAGTAAGTTCAAGAAGA | 0.956 |
| CAGGATGGTAGTTGCTGAAGGGCAGGGTTG | 0.789 |
| GTAATCATTTGGGACAAAGTTCATCTGGGC | 3.27 |
| GTGGGAGAGGGGGACTGCAAGTACGATTGG | -0.658 |
| TGCGTGTTATCTATGGAACATGGACTTTGA | 8.74 |
| TTATCAAGCGTGCACCCCAGGTACGGAGGA | 0.548 |
| GGCAGCAGGGAAGAGCCGGCCGGCGGGGTC | 1.31 |
| ATAAGGGGCAGCAAACCTACCTGAACTTTG | 3.07 |
| ACAGTGGGGAGGGCAGGGTCAGAACCTGCC | -1.09 |
| CCATAGCGAAGCCGGCGGCGGAATGCTTGT | -0.837 |
| CGGGTATGTGGGGCGTGTGTTAGACTTTGG | 4.22 |
| GAGGAAGGAATGCACATGCCTTAAGGGACC | -1.34 |
| GCAGGAGGTCAGAAACAGAAAGTCCGGGGG | -1.09 |
| GCTCTGTTTTACAAACACAATGGAAGGCTG | -0.962 |
| ACCTCAACTCTCAGTTTGGCTCTTATGTCC | 1.28 |
| GTCATGGCAACAGTTTTCTGGGATGCCCAA | -0.917 |
| CTAACAAGCTGCCAAACTCTCACTCTACTC | -1.06 |
| GATGGTACAAATTCATGGCTGGGCTCGGCT | -1.13 |
| CTCTGCAACTCAGAGACAGGGATTGGTTCT | -0.965 |

| Sequence | binding signal (log2 normalized intensity) |
| --- | --- |
| CTCTCACCTGCCTAACATTCTCTAATCAGG | -0.221 |
| AGCAAAGTTCAATTTCCAACAAATGAAACT | -1.12 |
| CAAAAGAGGCTTCCTGGGCCAGGTCACTTG | 0.0549 |
| AGCTTGAGAAACAGGGGCTTAAACCTTTAA | -0.858 |
| TAGTGGCTGAAAGTACTGGCCAGATGAGGT | -0.921 |
| TGTGTCTTGATCTTGCAACTCAACCCTGGC | 0.893 |
| GTTTGTATTCCTTGTCCTTGACCCTTCCTC | 3.7 |
| ACACAATCTAAAAAGTATGTCATAATGTAC | 1.06 |
| CTATTTACACAGCTGATGGAAGTTTGCCCT | 2.98 |
| ACCGACCTTTGGTTCCTGAACTCAAACCCC | 2.57 |
| CACAGGAGAAAACAGCACAAGCAATGGCTG | -1.23 |
| CCCCACCCCCCACCCCAGAAGTATGGGAAG | 4.57 |
| GTTATCACAGCTGGCCCACTGTTCTCTCTA | -1.1 |
| CTCTAGCTGTCCTCCTCTGAAGGAACTTCT | -0.714 |
| ATAAATACCAAAGCCATGGCTCCAACCCGA | -0.953 |
| TGGGGTCTCGCTGCTTCGGCCTTTGACCTC | 7.94 |
| ATCCTGGGCTACCGATATGAGGCTTCCATT | -1.32 |
| TTCATAGGTCAATTCTTTGAAGTCTTCCCT | 0.933 |
| CAAATATTTACTAGTTAAGTCACTGGGCTG | 0.727 |
| AAGTGTCAGAGCAGGTGAACGACTTGACAA | -1.16 |
| CAGAGGACAGGTTTCCTGAGTTACAGATAA | -0.67 |
| GAGAGTCAAAGGTTAATGAGCCCCCTAAAA | 4 |
| CCTCCTATGATCTTTCATTCCTATTGTCCC | 2.12 |
| TGGAGATATGATAGCTGACAAGCAAACACA | -1.14 |
| AAGAATTGCTCAACCTGGACCTCATTAATA | 1 |

| Sequence | binding signal (log2 normalized intensity) |
| --- | --- |
| TCGTGCCCTAATCTCACTCTTTGTTATTTA | 1.07 |
| GACTACTTCTCACCACCTCTGCTGCGATCA | -1.13 |
| TGACAATTACATAGTTGAAATAGCATGAAT | -0.62 |
| TCTTTGGTGGTGGGGGGTAGCCACTGACAG | 0.63 |
| GGTGGTGATGGTGGGAGGGAGGCTTTTGCA | -0.879 |
| GCTAAGAGACAGCTCCACAGCTGGACTTTG | 5.15 |
| GATGTTCTACACTGCTTACCCTGCAGTGTG | 0.052 |
| AGAGAGGGATTAAAGTGTAGGGAGTGTCCA | 0.856 |
| CTTTGTTGGTTTTGCCCGAGGTCTGATAAG | 1.7 |
| GAGGCAGTCCTGGCTTGGCCACCTACTAGC | -1.15 |
| CTAGGAGAATCACTAGGACATATATGAGGA | -1.01 |
| GTCACCTACATGTGAGAGAGGCTTATGCAT | -1.12 |
| GATTGGGTCTTCTAGAAACAACACACCTTG | 0.472 |
| GGGCTTGCAAAGGTCAGGTTTCAGGAATCA | 1.81 |
| TATCTGGTTCAAAGGTCATTTCTGCTTGCA | 5.75 |
| TCAAGGGTGTTCCTGAGTAAATCTCACATT | 0.762 |
| ACAAGCGTCGCTGAGTGGAGGCCCAGTAAG | -1.07 |
| AGGCAGCATGGAATGACTTTGGGGAAATGA | -1.31 |
| GATGAAGCAATAGGAATCACACAACTTTCA | -1.12 |
| CCGTTAGCCAATATTTGCAAGGCTGTTGGC | -1.09 |
| AGCTGGACTTTGAACTTCATGTGTGGTGCA | 6.21 |
| GCAGAGGCCTGATGGTGAGTTCTGTCCTTT | 2.23 |
| CTTGGCTGTGCTGCCCTTTGCCCTTTGGGA | 7.11 |
| CTGAAGACAAAGCACAATCAAAGCAATGGC | -1.15 |
| CTCTTCAGAATGGCCTGCCCATCCCCCCAA | 5.18 |

| Sequence | binding signal (log2 normalized intensity) |
| --- | --- |
| TCATATGGACTATGTTTACACAGCCTTGTA | 0.636 |
| TCCTCCAAAACCCAGTTCATAGGTCAATTC | 4.02 |
| TGGAGCAATTCAACAACTGTGCATTCTGAA | -0.663 |
| GGAATGTGCAAACGGCCCAGGGTTAGAGGA | -0.596 |
| GTGACCTTCGATCACCTCAAGAAAGAGGTG | 1.94 |
| CTGGACTCAAGGAATCCTCCTAAGTAGCCA | -1.15 |
| TATTTGACCTTCGGCCTCAATTATAACTCA | 4.69 |
| TTGAATTCCTGGAAATCCCGAAATAGAGCC | -1.13 |
| GCCTGTGCTAAGTTTCAAAGAGGAGGCAGA | -1.1 |
| CACTTGGTGGACATGGTTCACTGATTACTG | 1.03 |
| CTGGTAAAGCACTTTGCCCCCAAGAAAAGG | 3.49 |
| TTATCTCAGATGAGACTTTGGACTTTTGAA | 7.12 |
| AATAACAAAGGGCACCCTTGATGTGTATTT | 0.501 |
| ATCAGGAAGGTCAGAAAGCAGAAGTTCTAG | -1.15 |
| GAACTGCAAGGCTAGAGATTCTCCCTGGGG | -1.17 |
| AGGAATCTGTTGAGAACTGGAGCAAAGGTC | 4.91 |
| TGTCCCACATTAACTGTGCTTCTGGGGTAT | 0.697 |
| AACCCTTGAGCTCTGCACAGCACAAGATAA | -1.13 |
| GTACCCCACAGGTATTCTTTCATCCCTCTC | 1.47 |
| AAGCCGAAAGAGGGTGAAAGTACAGTGATG | 0.96 |
| CCCATCCCAGAGGTCAAACTATCTGAGGTG | 0.966 |
| GGGCTGAGGATGAGGACTTTGGTCTTATTA | 3.74 |
| GTCTTTGCTTTTTGAAAAGCTGTAGTGAAC | 1.31 |
| CTCCAAGATAAAGGGTCAGATTGTAGCCTC | 0.89 |
| GGCAGCCAGTGAGTGCAGCAGTGTACTTGA | 0.693 |

| Sequence | binding signal (log2 normalized intensity) |
| --- | --- |
| CTGCCAAAGCTCACAGATGTGGAATGAAAC | -0.0699 |
| ACCATCCACGGATGCATGATTGCTCTCTAC | -0.932 |
| AGTATCCCATCCATTTCCCATCCCCAGAGC | 3.83 |
| CAGCAGACAATGGGAGACATTCCTTCAGCG | -0.979 |
| CCTTTTCTATCCAGATGATCTTTACCCTGG | 3.89 |
| ATCAAAGCAGTATCATCAACATGCACTAGC | -1.12 |
| AGTCCGGGGGCCAGTTCACTCAGTCCACAT | 2.12 |
| CCTGACCTTTGGATTCCCAGATGGAGTGCT | 3.37 |
| CAGTAGATAACCTCAAAGAGCATGGCGCCA | -1.14 |
| ACTCATGCTTTCTTATCTGGGGGCCATTCC | 1.43 |
| ACTTAGTCCAGGTTTAGCAAGAATACTGCT | -1.15 |
| CTTAACATGGTTTGCAAGACCTCTGAGAAC | 0.656 |
| AACTCCTATGTGAATCTAATGCCACCATTG | -0.453 |
| GAGATAAGGGGGTCAGTTCAAAAGACTCAT | -0.901 |
| TTGTCCTTCACTTGTAGGAGACCTTGAGGA | 1.34 |
| ATTTTATGGGAAAACAGAATGGTCTGTATT | 1.33 |
| TTCCCGAGTGCCTTTAGAGGGCAAGGATCA | 2.77 |
| GAGGGATCAGGTCTTTCCTGTCCCAAGGGG | -0.723 |
| TGTTCTCTTTATTTATTAACTGGAGATAAC | 0.571 |
| GACCAGCGTGTGGCGCCATTTCAGGTCCAC | 1.39 |
